# Screen size: about 310,000 compounds; about 2,200 (0.71%) showed an effect of 50% or more. The effect is printed as a negative number. This is one part of the list.
# Target: human ether-à-go-go-related gene (hERG) potassium channel (human, UniProt Q12809)
# Experiment: primary screen, population patch clamp on CHO cells stably expressing hERG
# Sequence of human ether-à-go-go-related gene (hERG) potassium channel (Q12809 whole entry, looked up): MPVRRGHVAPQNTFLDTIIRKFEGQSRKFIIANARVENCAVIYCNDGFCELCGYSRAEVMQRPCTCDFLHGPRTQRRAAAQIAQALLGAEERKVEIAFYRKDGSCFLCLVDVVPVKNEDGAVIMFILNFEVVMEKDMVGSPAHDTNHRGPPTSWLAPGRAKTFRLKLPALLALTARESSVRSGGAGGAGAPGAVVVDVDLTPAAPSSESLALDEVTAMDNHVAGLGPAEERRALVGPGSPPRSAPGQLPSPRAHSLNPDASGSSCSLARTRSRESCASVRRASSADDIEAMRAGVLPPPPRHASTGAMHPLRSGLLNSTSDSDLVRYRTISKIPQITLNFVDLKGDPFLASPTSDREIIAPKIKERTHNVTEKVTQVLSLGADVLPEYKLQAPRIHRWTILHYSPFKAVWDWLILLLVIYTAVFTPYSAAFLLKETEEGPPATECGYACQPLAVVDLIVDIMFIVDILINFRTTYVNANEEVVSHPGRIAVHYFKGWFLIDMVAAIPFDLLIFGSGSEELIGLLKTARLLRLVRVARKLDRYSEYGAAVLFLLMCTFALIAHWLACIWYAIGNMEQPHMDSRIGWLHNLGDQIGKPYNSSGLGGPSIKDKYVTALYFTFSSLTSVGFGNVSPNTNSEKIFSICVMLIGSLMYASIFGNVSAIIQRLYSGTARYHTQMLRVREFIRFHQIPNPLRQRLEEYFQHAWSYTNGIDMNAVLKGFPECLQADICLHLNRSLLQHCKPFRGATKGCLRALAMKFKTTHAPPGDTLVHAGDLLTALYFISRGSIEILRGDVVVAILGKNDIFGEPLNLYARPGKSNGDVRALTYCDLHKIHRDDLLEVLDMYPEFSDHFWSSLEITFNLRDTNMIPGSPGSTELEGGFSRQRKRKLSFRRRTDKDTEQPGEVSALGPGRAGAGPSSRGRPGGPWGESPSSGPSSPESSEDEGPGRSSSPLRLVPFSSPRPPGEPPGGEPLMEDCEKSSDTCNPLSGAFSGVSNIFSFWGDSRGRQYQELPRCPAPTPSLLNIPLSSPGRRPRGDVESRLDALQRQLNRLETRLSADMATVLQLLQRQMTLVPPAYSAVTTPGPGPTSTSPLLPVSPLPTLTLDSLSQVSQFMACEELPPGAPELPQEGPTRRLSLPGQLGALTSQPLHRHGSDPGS
row,Structure (SMILES),"hERG current change (%, negative = inhibition) at 1uM"
1,COc1ccc(CCNC(=O)Cc2cccs2)cc1,16.8%
2,CC(Sc1ccc(Cl)cc1)C(=O)NNC(=O)c1ccncc1 (centres unmarked),9.91%
3,CCc1nnc(NC(=O)c2cc(S(=O)(=O)N3CCCCC3)ccc2N2CCOCC2)s1,10.4%
4,O=C(/C=C/c1ccccc1[N+](=O)[O-])Nc1ccc(S(=O)(=O)Nc2ncccn2)cc1,2.04%
5,Cc1cccc(NC(=O)Nc2cccnc2)c1C,10.1%
6,N#Cc1ccccc1N/C=C/C(=O)c1ccc(Cl)cc1,8.52%
7,COc1cccc(N(CC(=O)NCCSc2ccccc2)S(C)(=O)=O)c1,1.21%
8,Cc1cc(C(=O)CSc2cccc[n+]2[O-])c(C)n1-c1ccc(OC(F)F)cc1,5.13%
9,COCc1cc(=O)n2c(-c3ccccc3OC)n[nH]c2n1,4.92%
10,CCOc1ccc(Cl)cc1CSc1n[nH]c(CC)n1,5.18%
11,CC(CCc1ccccc1)NC(=O)C(=O)Nc1ccccc1 (centres unmarked),7.05%
12,Cc1ccc(CNC(=O)C2CCC(=O)N(C3CC3)C2)cc1 (centres unmarked),16.9%
13,CCN(c1ccccc1)c1cc(C)nc2ncnn12,4.67%
14,COc1cccc(CC(=O)N2CCN(S(=O)(=O)c3ccc(Br)cc3)CC2)c1,-2.01%
15,Cc1cc(C)nc(NC(=NCCc2c[nH]c3ccccc23)NC(=O)Nc2ccc(Cl)c(Cl)c2)n1,-5.19%
16,O=C(c1cccc2ccccc12)n1nnc2ccccc21,9.06%
17,O=C(NC(C(=O)O)c1ccccc1)c1ccc(S(=O)(=O)N2CCOCC2)cc1 (centres unmarked),-0.891%
18,Cc1cc(-c2ccccc2)nc(SC(C(=O)O)c2ccccc2)n1 (centres unmarked),3.67%
19,Cc1cc(-c2nnc(CCC(=O)NC(C)c3cccc4ccccc34)o2)no1 (centres unmarked),7.45%

row,Structure (SMILES),"hERG current change (%, negative = inhibition) at 1uM"
1,COc1ccc(-n2nnc3c(SCC(=O)OCc4ccccc4)ncnc32)cc1,-5.61%
2,CC(C)[n+]1ccn(C2=C([O-])c3ccccc3C(=O)/C2=N\S(=O)(=O)c2ccccc2)c1,9.02%
3,CC(=O)Nc1nc2ccc(C(=O)NC3CCCCC3)cc2s1,6.1%
4,Cc1cc2nnc(SCc3ccccc3)n2c(N)n1,-5.86%
5,COCCN(Cc1ccccc1)C(=O)c1cccc(S(=O)(=O)N(C)c2c(C)n(C)n(-c3ccccc3)c2=O)c1,7.28%
6,Cc1cccc(NC2=NC3(CCCCC3)N=C(N)N2)c1,1.24%
7,C/C(=C1/SC(N2CCOCC2)=NC1=O)c1ccc(Br)cc1,10.8%
8,COC(=O)CSc1nc2ccccc2o1,9.42%
9,CCOC(=O)N1CCN(Cc2nc3cc(NC(=O)c4cccs4)ccc3n2CC)CC1,-0.465%
10,CC1CCC(NC(=O)C2c3ccccc3C(=O)N2Cc2ccc3c(c2)OCO3)CC1 (centres unmarked),7.44%
11,O=C(NCc1cccnc1)C1CCN(c2ccc(S(=O)(=O)N3CCOCC3)cc2Cl)CC1,0.119%
12,CC(=O)Nc1cc(C(=O)N2CCc3ccccc3C2)ccc1Sc1ccc(C)cc1,3.94%
13,Cc1ccc(NC(=O)NC(=O)CN2CCCC2c2ccc3c(c2)OCCO3)cc1C (centres unmarked),-3.68%
14,Cc1cc(C(=O)c2ccccc2)c(NC(=O)CN2CCOCC2)s1,4.13%
15,Cc1ccccc1N1CCN(Cc2ccc3c(c2)OCO3)CC1,3.92%
16,CCN(CC)S(=O)(=O)c1ccc(-c2nnc(SCc3nnc(-c4ccc(C)cc4)o3)n2CC)cc1,-0.991%
17,Cc1ccsc1C(=O)OCC(=O)NCCC1=CCCCC1,17.8%
18,O=C(CSc1nnc2scc(-c3ccc(F)cc3)n12)NCc1ccco1,11.5%
19,CC(=O)Nc1ccc(NC(=O)COC(=O)c2ccccc2SCC(=O)N2CCCC2)cc1,17.8%

row,Structure (SMILES),"hERG current change (%, negative = inhibition) at 1uM"
1,C/C(Cl)=C/Cn1c(SC(C)C)nc2c1c(=O)[nH]c(=O)n2C,6.96%
2,Cc1cc(=O)[nH]c(CN2CCOCC2)n1,12%
3,O=S(=O)(NC1CC1)c1ccc(S(=O)(=O)N(Cc2ccccn2)C2CCCC2)cc1,10.1%
4,O=C(/C=C/C=C/c1ccccc1)c1ccco1,10%
5,CC1(C)O[C@@H]2[C@H](O1)[C@@H](COS(=O)(=O)[O-])O[C@H]2n1cnc2c(=O)[nH]cnc21.[K+],13.7%
6,CN1C(=O)/C(=C\c2ccc(OC(=O)c3ccco3)cc2)SC1=S,23%
7,CS(=O)(=O)c1ccc(C(=O)Nc2cc(-c3ccccc3)nn2-c2ccccc2)cc1,9.34%
8,Cn1nccc1C(=O)N1CCN(c2ncccn2)CC1,9.95%
9,CC(C)NC(=O)NC(=O)CSc1nnc(COc2ccccc2Cl)o1,-8.04%
10,CCc1ccc(NS(=O)(=O)c2cc3c(cc2C)n(C)c(=O)c(=O)n3C)cc1,1.44%
11,CN(N)c1nc(N2CCCC2)nc(N2CCCC2)n1,3.96%
12,COc1ccc(Cc2nnc(NC(=O)c3c(-c4ccccc4)noc3C)s2)cc1OC,-0.959%
13,CCN(CC)S(=O)(=O)c1ccc(NC(=O)c2ccc(Sc3nncn3C)c([N+](=O)[O-])c2)cc1,-1.23%
14,CC(NC(=O)C1=CC=CN2CCS(=O)(=O)N=C12)c1ccc(Cl)cc1Cl (centres unmarked),-3.23%
15,CCCOc1cccc(CN2CCCCC2c2cccnc2)c1.Cl (centres unmarked),10.5%
16,O=C(Nc1cccn(Cc2cccc(F)c2)c1=O)NC1CCCCC1,6.79%
17,COc1ccccc1/C=C(\C#N)C(=O)c1cccn1C,7.6%
18,O=C(NC(=S)NC1CCCCC1)c1ccccc1[N+](=O)[O-],18.9%
